Reference: PubChem BioAssay AID1454 (National Center for Advancing Translational Sciences (NCATS), 2008)
Where “and” joins values, the source holds several entries; their conditions need not be identical. Identical values can stand only once. Among all 130,000 compounds or so, about 550 (0.42%) were called active. This list was built around the results that the source calls inconclusive (neither active nor inactive); the mix of calls is not that of the screen. Calls come from the whole dose curve; as a rule, active = well fitted inhibition curve with a large enough effect; inconclusive = small, poorly fitted or top-dose-only effect, or effect the other way; inactive = flat fitted curve, though single readings scatter. Where the call is inconclusive, the potency comes from a doubtful curve fit. A structure can be active in one record and inactive in another.

Assay: qHTS Assay for Inhibitors of the ERK Signaling Pathway using a Homogeneous Screening Assay; Stimulation with EGF; note: nearly all actives have a fitted effect of over 55% in size
Conditions: HEK293-V1b, EGF-stimulated phospho-ERK AlphaScreen
Method in brief: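 Compounds are titrated over HEK293-V1b cells kept overnight in 1% FBS. After 30 min at 37C, EGF (25 nM final) triggers ERK phosphorylation for 5 min, measured by AlphaScreen in lysates.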
Potency is the fitted concentration of half-maximal effect; tags give direction and shape of the fitted curve.

| Structure (SMILES) | Potency |
| --- | --- |
| COC(=O)C1=Nc2ccccc2/C1=C\c1c(O)n(-c2ccc(OC)cc2)c(=O)[nH]c1=O | inconclusive: 31.6 µM [activator, single point] |
| Cc1nn(Cc2ccccc2)c(Cl)c1C(=O)OC(C)C(=O)Nc1ccc(F)cc1Cl (configuration not stated) | inactive |
| CC(C)n1c(O)c(C2c3cc(Cl)ccc3Oc3[nH]c(=O)n(C(C)C)c(=O)c32)c(=O)[nH]c1=O (configuration not stated) | active: 3.16 µM |
| COC(=O)[C@@]1(Cc2ccc(F)cc2)[C@H]2c3cc(C(=O)N(C)C)[nH]c3C[C@H]2CN1C(=O)c1ccccc1 | inconclusive: 39.8 µM [inhibitor, single point] |
| Cc1ccc(CN2CCN(Cc3ccccc3F)CC2)cc1 | inconclusive: 39.8 µM [inhibitor, single point] |
| CCCN(CCC)c1c([N+](=O)[O-])cc(C(F)(F)F)cc1[N+](=O)[O-] | inconclusive: 15.8 µM [inhibitor, partial curve] |
| C[C@@H]1CC[C@H]2[C@@H](C)C(=O)O[C@@H]3OC4(C)CC[C@@H]1C32OO4 (some centres not stated) | inactive |
| CCC12C=CCN3CCC4(c5ccc(OC)cc5N(C)C4[C@@](O)(C(=O)OC)C1OC(C)=O)C32 (some centres not stated) | inactive |
| O=C1/C(=C\c2ccc([N+](=O)[O-])cc2)N2CCC1CC2 | inconclusive: 10 µM [inhibitor, partial curve] |
| Cc1ccc(-c2nc3ccc(C)cn3c2CC(=O)N(C)C)cc1 | inactive |
| O=C(O)Cc1cccnc1C(=O)O | inactive |
| O=C1NC(=O)N(Cc2ccco2)C(=O)/C1=C/c1ccc(-c2cccc([N+](=O)[O-])c2)o1 | inconclusive: 39.8 µM [inhibitor, single point] |
| CCOc1cccc(=NC2CCCCC2)c2c(C)n(C)c(C)c12 | inactive |
| O=C(Oc1ccccc1)N1CCC[C@@]2(CCN(Cc3cc(C(F)(F)F)cc(C(F)(F)F)c3)C2)C1 | inactive |
| C[C@@]12CCC(OS(=O)(=O)O)C[C@@H]1CCC1C2CC[C@]2(C)C(=O)CCC12 (some centres not stated) | inconclusive: 0.126 µM [activator, full curve, poor fit] |
| CC1Oc2cc3c(-c4c(O)cc(O)c5c(O)c6c(cc45)OC(C)C(C)C6=O)c(O)cc(O)c3c(O)c2C(=O)C1C (configuration not stated) | active: 15.8 µM |
| CN1CCN(c2cccc3c2C(=O)c2ccccc2C3=O)CC1 | inconclusive: 25.1 µM [inhibitor, single point] |
| CC1=CC(=O)c2c(O)cccc2C1=O | inactive and active: 5.62 µM |
| O=C1NC(=O)C(=Cc2csc3ccccc23)C(=O)N1 | inactive |

| Structure (SMILES) | Potency |
| --- | --- |
| c1cc2c(cc1C1OC[C@@H]3C(c4ccc5c(c4)OCO5)OCC13)OCO2 (some centres not stated) | inactive |
| CN1C(=O)NC(=O)/C(=C\C=C\c2ccccc2[N+](=O)[O-])C1=O | inconclusive: 39.8 µM [inhibitor, single point] |
| COc1cc(/C=C/[N+](=O)[O-])ccc1O | inconclusive: 31.6 µM [inhibitor, single point] |
| COC(=O)C12CC3=CCC4C(=O)N(c5ccccc5)C(=O)C4C3Cc3ccccc3[C@@H]1CNC2=O (some centres not stated) | inactive |
| COc1cc2c(cc1OC)-c1c(OC)c(OC)c(OC)c3ccnc(c13)C2=O | inconclusive: 20 µM [inhibitor, single point] |
| COC(=O)/C(C)=C\CC12OC(C)(C)C3CC(C=C4C(=O)c5c(OC)c6c(c(CC=C(C)C)c5OC431)OC(C)(CCC=C(C)C)C=C6)C2=O (configuration not stated) | inconclusive: 28.2 µM [inhibitor, single point] |
| c1cncc(CNc2cc(-c3ccc4c(c3)OCO4)ncn2)c1 | inconclusive: 0.126 µM [inhibitor, partial curve, poor fit] |
| CCc1cc2c(N3CCN(C)CC3)ncnc2s1 | inactive |
| Cc1cc2c(s1)Nc1ccccc1N=C2N1CCN(C)CC1 | inconclusive: 6.31 µM [inhibitor, single point] |
| C/C1=C\[C@@H](C)C/C=C/[C@H]2[C@@H]3O[C@]3(C)[C@@H](C)[C@H]3[C@H](Cc4c[nH]c5ccccc45)NC(=O)[C@]32C(=O)/C=C/C(=O)[C@@H]1O | inconclusive: 0.794 µM [activator, partial curve] |
| CC1=NCCc2c1[nH]c1cc(O)ccc21 | inconclusive: 39.8 µM [activator, single point] |
| COc1cc(O)c(C(=O)O)c(-c2cc(O)c(O)cc2C)c1 | inconclusive: 15.8 µM [inhibitor, partial curve, poor fit] |
| CN1c2ccc([N+](=O)[O-])cc2CC2(C(=O)NC(=O)N(c3ccc(Br)cc3)C2=O)C1c1ccccc1 (configuration not stated) | inconclusive: 35.5 µM [inhibitor, partial curve] |
| CCC(C)C(=O)c1c(O)c(C)c2oc3c(C)c(O)c(C(=O)C(C)CC)c(O)c3c2c1O (configuration not stated) | inconclusive: 0.126 µM [activator, partial curve, poor fit] |
| CCOC(=O)C(=CNc1ccc(C(O)(C(=O)OCC)C(F)(F)F)cc1C)C(=O)OCC (configuration not stated) | inconclusive: 39.8 µM [inhibitor, single point] |
| CC1OC(=O)C(C(C)C)NC(=O)C(C(C)C)OC(=O)C(C(C)C)NC(=O)C(C)OC(=O)C(C(C)C)NC(=O)C(C(C)C)OC(=O)C(C(C)C)NC(=O)C(C)OC(=O)C(C(C)C)NC(=O)C(C(C)C)OC(=O)C(C(C)C)NC1=O (configuration not stated) | inactive |
| OC(c1cccc(Cl)c1)(c1cccc(Cl)c1)C1CN2CCC1CC2 (configuration not stated) | inconclusive: 25.1 µM [inhibitor, single point] |
| CCN(CC)C(=O)[C@]1(c2ccccc2)C[C@@H]1CN | inconclusive: 14.1 µM [inhibitor, partial curve] |
| COc1cc(/C=C(/C)[N+](=O)[O-])ccc1OCc1ccccc1Cl | inconclusive: 22.4 µM [inhibitor, partial curve] |

| Structure (SMILES) | Potency |
| --- | --- |
| Oc1cc2c(cc1O)[C@H]1c3ccccc3CN[C@@H]1CC2 | inconclusive: 12.6 µM [inhibitor, partial curve] |
| CCCC[N+]12CCC(CC1)C(C(O)(c1ccccc1)c1ccccc1)C2 (configuration not stated) | inactive |
| CCC/C=C(\CCC)C(NP(=O)(c1ccccc1)c1ccccc1)c1ccccc1 (configuration not stated) | inconclusive: 39.8 µM [inhibitor, single point] |
| CCOC(=O)C1(CCc2ccccc2)CCN(Cc2csc(C(C)=O)c2)CC1 | inconclusive: 20 µM [inhibitor, partial curve, poor fit] |
| O=C(O)c1ccccc1-c1c2cc(Br)c(=O)cc-2oc2[c]([Hg])c(O)c(Br)cc12 | inconclusive: 11.2 µM [inhibitor, partial curve] |
| N#Cc1ccc(CN2CCC3(CC2)CCN(C(=O)Oc2ccccc2)CC3)cc1 | inactive |
| CCCCCCCCCCCCCC(=O)OC1C(C)[C@@]2(O)C(C=C(CO)C[C@]3(O)C(=O)C(C)=C[C@H]23)[C@@H]2C(C)(C)[C@]12OC(C)=O (some centres not stated) | inactive |
| CC(C)CN1CCC2(CC1)CCN(C(=O)Oc1ccccc1)CC2 | inactive |
| CNC(=O)OCc1n(C)cc[n+]1C | inactive |
| O=C1NC(=O)N(c2ccccc2)C(=O)/C1=C\C=C\c1ccccc1 | inconclusive: 31.6 µM [inhibitor, single point] |
| C/C=C(/C)C(=O)O[C@H]1C(C)=C2C([C@@H]1OC(=O)CCCCCCC)[C@@](C)(OC(C)=O)C[C@@H](OC(=O)CCC)[C@@]1(O)[C@H]2OC(=O)[C@@]1(C)O (some centres not stated) | inconclusive: 3.55 µM [inhibitor, single point] |
| O=c1[nH]c2ccccc2n1CCCN1CCC(n2c(=O)[nH]c3cc(Cl)ccc32)CC1 | inconclusive: 17.8 µM [inhibitor, partial curve] and inconclusive: 20 µM [inhibitor, partial curve] |
| CN1C2CCC1/C(=C/c1ccccn1)C(=O)/C2=C\c1ccccn1 | active: 14.1 µM |
| CC(C)[C@H]1C(=O)O[C@H](C(C)C)C(=O)N(C)[C@@H](C(C)C)C(=O)O[C@H](C(C)C)C(=O)N(C)[C@@H](C(C)C)C(=O)O[C@H](C(C)C)C(=O)N1C | inconclusive: 39.8 µM [inhibitor, single point] |
| CC(C)n1c(=O)c(C=Nc2cccc([N+](=O)[O-])c2)c(O)n(CCc2ccccc2)c1=O | inconclusive: 22.4 µM [inhibitor, single point] |
| CCc1ccc(C(=O)NCc2ccc(Cl)cc2Cl)cc1 | inconclusive: 35.5 µM [inhibitor, single point] |
| O=C1CCCC2=C1C(c1cccnc1)Nc1ccccc1N2 (configuration not stated) | inconclusive: 3.98 µM [inhibitor, full curve, poor fit] |
| CC(C)CC(N(C)C)C1(c2ccc(Cl)cc2)CCC1 (configuration not stated) | inconclusive: 35.5 µM [inhibitor, single point] |
| COC(=O)C(O)(c1ccc(NC(=S)NC(=O)c2ccc(Cl)cc2Cl)c(C)c1)C(F)(F)F (configuration not stated) | inconclusive: 35.5 µM [inhibitor, single point] |
